Data reported in a collection of fitness landscapes (doi:10.1126/science.1257360).
This is one part of the list.

B1: PhoQ; a variant is named by its letters at X, in order, P23837 (parent)
chain: MKKLLRLFFPLSLRVRFLLATAAVVLVLSLAYGMVALIGYSVSFDKTTFRLLRGESNLFYTLAKWENNKLHVELPENIDKQSPTMTLIYDENGQLLWAQRDVPWLMKMIQPDWLKSNGFHEIEADVNDTSLLLSGDHSIQQQLQEVREDDDDAEMTHSVAVNVYPATSRMPKLTIVVVDTIPVELKSSYMVWSWFIYVLSANLLLVIPLLWVAAWWSLRPIEALAKEVRELEEHNRELLNPATTRELTSLVRNLNRLLKSERERYDKYRTTLTDLTHSLKTPLXXLQXXLRSLRSEKMSVSDAEPVMLEQISRISQQIGYYLHRASMRGGTLLSRELHPVAPLLDNLTSALNKVYQRKGVNISLDISPEISFVGEQNDFVEVMGNVLDNACKYCLEFVEISARQTDEHLYIVVEDDGPGIPLSKREVIFDRGQRVDTLRPGQGVGLAVAREITEQYEGKIVAGESMLGGARMEVIFGRQHSAPKDE

Variants of: B1
Assay: enrichment ratio after two sorts for PhoP signalling (ratio (wild type AVST 3.29)); higher = more functional
Details: with PhoP (E. coli)
Variant IHPW has an enrichment ratio of no more than 0.25.
For WCSM, the enrichment ratio was no more than 0.25.
WHPY gave an enrichment ratio of no more than 0.25.
In the case of QFYH, the enrichment ratio is reported as no more than 0.25.
In the case of YPIK, the enrichment ratio is reported as no more than 0.25.
With REAY the enrichment ratio was 5.49.
For MKMF, the enrichment ratio was no more than 0.25.
For RKTA, the enrichment ratio was no more than 0.25.
Variant SIWP has an enrichment ratio of no more than 0.25.
In the case of HICT, the enrichment ratio is reported as no more than 0.25.
Work on IMHC yielded an enrichment ratio of no more than 0.25.
Work on TFDV yielded an enrichment ratio of no more than 0.25.
PCWL gave an enrichment ratio of no more than 0.25.
With TEFT the enrichment ratio was 5.71.
Variant FGYP has an enrichment ratio of no more than 0.25.
Variant ISIQ has an enrichment ratio of no more than 0.25.
In the case of KKQT, the enrichment ratio is reported as no more than 0.25.
In the case of ITDA, the enrichment ratio is reported as no more than 0.25.
KFKC was tested, and the enrichment ratio was no more than 0.25.
Work on FSMR yielded an enrichment ratio of no more than 0.25.
Work on IDEK yielded an enrichment ratio of no more than 0.25.
Work on SFCI yielded an enrichment ratio of 0.567.
PSEL gave an enrichment ratio of no more than 0.25.
VYEP showed an enrichment ratio of no more than 0.25.
Work on KMYY yielded an enrichment ratio of no more than 0.25.
Variant YALY has an enrichment ratio of 3.59.
QPVQ showed an enrichment ratio of no more than 0.25.
ISGR was tested, and the enrichment ratio was no more than 0.25.
In the case of ACRG, the enrichment ratio is reported as no more than 0.25.
Variant ESTY has an enrichment ratio of no more than 0.25.
TVFH showed an enrichment ratio of no more than 0.25.
For IWDV, the enrichment ratio was no more than 0.25.
In the case of HKAA, the enrichment ratio is reported as no more than 0.25.
Variant VVME has an enrichment ratio of no more than 0.25.
SSFD was tested, and the enrichment ratio was no more than 0.25.
AHRD gave an enrichment ratio of no more than 0.25.
Work on CPTF yielded an enrichment ratio of no more than 0.25.
Work on PTEL yielded an enrichment ratio of no more than 0.25.
NHFA showed an enrichment ratio of no more than 0.25.
For FVKM, the enrichment ratio was no more than 0.25.
For VASM, the enrichment ratio was 4.41.
Variant CLLH has an enrichment ratio of no more than 0.25.
In the case of FCTS, the enrichment ratio is reported as no more than 0.25.
For HMFF, the enrichment ratio was 0.262.
DKFR showed an enrichment ratio of no more than 0.25.
In the case of TAMK, the enrichment ratio is reported as no more than 0.25.
In the case of IAHC, the enrichment ratio is reported as no more than 0.25.
Variant DTDA has an enrichment ratio of no more than 0.25.
GMHW showed an enrichment ratio of no more than 0.25.
LTVQ showed an enrichment ratio of no more than 0.25.
Work on LNAT yielded an enrichment ratio of no more than 0.25.
FPLK was tested, and the enrichment ratio was no more than 0.25.
SWYF gave an enrichment ratio of no more than 0.25.
TYKR was tested, and the enrichment ratio was no more than 0.25.
RDSQ showed an enrichment ratio of no more than 0.25.
RIPT was tested, and the enrichment ratio was no more than 0.25.
NCTF showed an enrichment ratio of no more than 0.25.
For TRTG, the enrichment ratio was no more than 0.25.
With ILKF the enrichment ratio was no more than 0.25.
Variant PHVA has an enrichment ratio of no more than 0.25.
MEEH was tested, and the enrichment ratio was no more than 0.25.
With EEHS the enrichment ratio was no more than 0.25.
DMLN was tested, and the enrichment ratio was no more than 0.25.
INYW was tested, and the enrichment ratio was no more than 0.25.
HISF gave an enrichment ratio of no more than 0.25.
For LHQN, the enrichment ratio was no more than 0.25.
Work on YWWS yielded an enrichment ratio of no more than 0.25.
FTLG was tested, and the enrichment ratio was 6.21.
Work on RMQA yielded an enrichment ratio of no more than 0.25.
LPLW was tested, and the enrichment ratio was no more than 0.25.
Variant PMYT has an enrichment ratio of no more than 0.25.
Work on GWRT yielded an enrichment ratio of no more than 0.25.
FRYE gave an enrichment ratio of no more than 0.25.
For DELK, the enrichment ratio was no more than 0.25.
CPCL showed an enrichment ratio of no more than 0.25.
In the case of HCFI, the enrichment ratio is reported as no more than 0.25.
DTPF showed an enrichment ratio of no more than 0.25.
In the case of NYPH, the enrichment ratio is reported as no more than 0.25.
SVIF gave an enrichment ratio of 0.504.
For YHFK, the enrichment ratio was no more than 0.25.
Variant LRVG has an enrichment ratio of no more than 0.25.
For KIYR, the enrichment ratio was no more than 0.25.
For KQAY, the enrichment ratio was no more than 0.25.
In the case of RPEV, the enrichment ratio is reported as no more than 0.25.
IGHS showed an enrichment ratio of no more than 0.25.
KLSR was tested, and the enrichment ratio was no more than 0.25.
EGYF was tested, and the enrichment ratio was no more than 0.25.
In the case of VNNK, the enrichment ratio is reported as no more than 0.25.
With AQAR the enrichment ratio was no more than 0.25.
For DFEY, the enrichment ratio was no more than 0.25.
For MNPK, the enrichment ratio was no more than 0.25.
Variant MYEC has an enrichment ratio of no more than 0.25.
KTHL showed an enrichment ratio of no more than 0.25.
Work on VNSM yielded an enrichment ratio of 5.83.
WDTD showed an enrichment ratio of no more than 0.25.
MTTD gave an enrichment ratio of no more than 0.25.
In the case of WDTS, the enrichment ratio is reported as 0.51.
For TSLT, the enrichment ratio was 13.3.
YQKE gave an enrichment ratio of no more than 0.25.
Variant PPTY has an enrichment ratio of no more than 0.25.
FNGI showed an enrichment ratio of no more than 0.25.
GSTN gave an enrichment ratio of no more than 0.25.
TLDC showed an enrichment ratio of no more than 0.25.
With ISLI the enrichment ratio was 11.2.
Variant LNYY has an enrichment ratio of 0.737.
NYQH was tested, and the enrichment ratio was no more than 0.25.
For KYCM, the enrichment ratio was no more than 0.25.
Work on NYQA yielded an enrichment ratio of no more than 0.25.
For KHVH, the enrichment ratio was no more than 0.25.
SRIW gave an enrichment ratio of no more than 0.25.
In the case of RCAD, the enrichment ratio is reported as no more than 0.25.
WPPD showed an enrichment ratio of no more than 0.25.
For LQHS, the enrichment ratio was no more than 0.25.
With NGFT the enrichment ratio was no more than 0.25.
Variant DIPW has an enrichment ratio of no more than 0.25.
In the case of ELVV, the enrichment ratio is reported as no more than 0.25.
KRGV gave an enrichment ratio of no more than 0.25.
In the case of TYQG, the enrichment ratio is reported as 1.66.
YLQT was tested, and the enrichment ratio was no more than 0.25.
With QLWC the enrichment ratio was no more than 0.25.
DIQD gave an enrichment ratio of no more than 0.25.
In the case of QGVG, the enrichment ratio is reported as no more than 0.25.
SDEC showed an enrichment ratio of no more than 0.25.
NGPA was tested, and the enrichment ratio was no more than 0.25.
QRVF showed an enrichment ratio of no more than 0.25.
Work on FYLY yielded an enrichment ratio of no more than 0.25.
For RTAF, the enrichment ratio was no more than 0.25.
For KTYD, the enrichment ratio was no more than 0.25.
IKAA showed an enrichment ratio of no more than 0.25.
Variant IMTN has an enrichment ratio of no more than 0.25.
VHMF showed an enrichment ratio of no more than 0.25.
GRHM showed an enrichment ratio of no more than 0.25.
WCLP gave an enrichment ratio of no more than 0.25.
For QVCC, the enrichment ratio was no more than 0.25.
Variant KIDH has an enrichment ratio of no more than 0.25.
HTYI was tested, and the enrichment ratio was no more than 0.25.
Work on IRFT yielded an enrichment ratio of no more than 0.25.
RIWV gave an enrichment ratio of no more than 0.25.
AQPL showed an enrichment ratio of no more than 0.25.
For FRQW, the enrichment ratio was no more than 0.25.
Variant MTQC has an enrichment ratio of no more than 0.25.
With TYCC the enrichment ratio was 5.44.
SFQC showed an enrichment ratio of no more than 0.25.
QVRA showed an enrichment ratio of no more than 0.25.
Variant SVDN has an enrichment ratio of no more than 0.25.
ANMM gave an enrichment ratio of 32.7.
GGKT gave an enrichment ratio of no more than 0.25.
In the case of RLTY, the enrichment ratio is reported as no more than 0.25.
In the case of TGNS, the enrichment ratio is reported as 2.8.
IRNQ gave an enrichment ratio of no more than 0.25.
AAVA gave an enrichment ratio of no more than 0.25.
PSTL gave an enrichment ratio of no more than 0.25.
With NVHY the enrichment ratio was no more than 0.25.
VQFY gave an enrichment ratio of no more than 0.25.
Variant ARYV has an enrichment ratio of no more than 0.25.
Variant TFWQ has an enrichment ratio of no more than 0.25.
CLCR was tested, and the enrichment ratio was no more than 0.25.
For GNTE, the enrichment ratio was no more than 0.25.
HHLN gave an enrichment ratio of no more than 0.25.
With HAIL the enrichment ratio was no more than 0.25.
VWHT gave an enrichment ratio of no more than 0.25.
HWCI showed an enrichment ratio of no more than 0.25.
With VSIP the enrichment ratio was no more than 0.25.
In the case of WHHQ, the enrichment ratio is reported as no more than 0.25.
With ICLT the enrichment ratio was 4.11.
With KCIN the enrichment ratio was no more than 0.25.
IIFW gave an enrichment ratio of no more than 0.25.
WSTD was tested, and the enrichment ratio was no more than 0.25.
SAMR was tested, and the enrichment ratio was 0.536.
With TLFP the enrichment ratio was no more than 0.25.
DTRH gave an enrichment ratio of no more than 0.25.
GLPD was tested, and the enrichment ratio was no more than 0.25.
In the case of RDEI, the enrichment ratio is reported as no more than 0.25.
Work on QMCN yielded an enrichment ratio of no more than 0.25.
LHMS gave an enrichment ratio of no more than 0.25.
For FDVG, the enrichment ratio was no more than 0.25.
RPFW was tested, and the enrichment ratio was no more than 0.25.
With ISHV the enrichment ratio was no more than 0.25.
For AWFW, the enrichment ratio was no more than 0.25.
With WSFW the enrichment ratio was no more than 0.25.
Work on EFVG yielded an enrichment ratio of no more than 0.25.
With TYFF the enrichment ratio was 0.393.
For NTFM, the enrichment ratio was no more than 0.25.
For GTFG, the enrichment ratio was no more than 0.25.
For MFWE, the enrichment ratio was no more than 0.25.
In the case of NILE, the enrichment ratio is reported as no more than 0.25.
For NFVI, the enrichment ratio was no more than 0.25.
FLWG showed an enrichment ratio of no more than 0.25.
Variant MSRG has an enrichment ratio of no more than 0.25.
QAYN was tested, and the enrichment ratio was 6.71.
With HICR the enrichment ratio was no more than 0.25.
Variant TRMA has an enrichment ratio of no more than 0.25.
RNQQ gave an enrichment ratio of no more than 0.25.
With PHRE the enrichment ratio was no more than 0.25.
ASVM was tested, and the enrichment ratio was 12.1.
